In article PMC2442059:
These are yes or no findings as the source states them, for the method shown. Binding seen in cells or lysates may run through a third protein. Some results given as binding are weak or reduced against the parent protein; the word gives no strength. One block for each substance: values may come before it.

Sequences of proteins named here, by UniProt entry; tags and fusion partners are left off. A change or cut given only in a name is not applied to a line headed by its entry. Residues count along the entry.
UniProt P12023, residues 18-770: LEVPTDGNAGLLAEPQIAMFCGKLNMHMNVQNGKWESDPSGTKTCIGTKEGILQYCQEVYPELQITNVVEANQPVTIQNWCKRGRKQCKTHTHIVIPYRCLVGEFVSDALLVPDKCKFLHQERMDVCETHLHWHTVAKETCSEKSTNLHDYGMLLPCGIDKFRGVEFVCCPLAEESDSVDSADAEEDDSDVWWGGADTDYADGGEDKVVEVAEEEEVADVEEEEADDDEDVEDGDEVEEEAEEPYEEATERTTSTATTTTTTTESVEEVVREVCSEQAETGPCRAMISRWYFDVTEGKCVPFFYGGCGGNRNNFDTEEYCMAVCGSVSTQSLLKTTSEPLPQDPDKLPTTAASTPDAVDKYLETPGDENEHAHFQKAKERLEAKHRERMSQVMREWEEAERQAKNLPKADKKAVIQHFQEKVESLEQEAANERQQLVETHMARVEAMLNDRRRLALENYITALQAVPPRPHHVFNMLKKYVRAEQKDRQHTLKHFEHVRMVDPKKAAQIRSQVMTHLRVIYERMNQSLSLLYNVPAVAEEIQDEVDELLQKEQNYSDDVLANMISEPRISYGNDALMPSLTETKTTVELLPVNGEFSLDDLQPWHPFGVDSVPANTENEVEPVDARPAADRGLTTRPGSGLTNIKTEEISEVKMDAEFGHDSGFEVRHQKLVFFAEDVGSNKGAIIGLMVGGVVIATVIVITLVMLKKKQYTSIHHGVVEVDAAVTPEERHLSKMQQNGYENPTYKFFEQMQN
UniProt P49134, residues 21-799: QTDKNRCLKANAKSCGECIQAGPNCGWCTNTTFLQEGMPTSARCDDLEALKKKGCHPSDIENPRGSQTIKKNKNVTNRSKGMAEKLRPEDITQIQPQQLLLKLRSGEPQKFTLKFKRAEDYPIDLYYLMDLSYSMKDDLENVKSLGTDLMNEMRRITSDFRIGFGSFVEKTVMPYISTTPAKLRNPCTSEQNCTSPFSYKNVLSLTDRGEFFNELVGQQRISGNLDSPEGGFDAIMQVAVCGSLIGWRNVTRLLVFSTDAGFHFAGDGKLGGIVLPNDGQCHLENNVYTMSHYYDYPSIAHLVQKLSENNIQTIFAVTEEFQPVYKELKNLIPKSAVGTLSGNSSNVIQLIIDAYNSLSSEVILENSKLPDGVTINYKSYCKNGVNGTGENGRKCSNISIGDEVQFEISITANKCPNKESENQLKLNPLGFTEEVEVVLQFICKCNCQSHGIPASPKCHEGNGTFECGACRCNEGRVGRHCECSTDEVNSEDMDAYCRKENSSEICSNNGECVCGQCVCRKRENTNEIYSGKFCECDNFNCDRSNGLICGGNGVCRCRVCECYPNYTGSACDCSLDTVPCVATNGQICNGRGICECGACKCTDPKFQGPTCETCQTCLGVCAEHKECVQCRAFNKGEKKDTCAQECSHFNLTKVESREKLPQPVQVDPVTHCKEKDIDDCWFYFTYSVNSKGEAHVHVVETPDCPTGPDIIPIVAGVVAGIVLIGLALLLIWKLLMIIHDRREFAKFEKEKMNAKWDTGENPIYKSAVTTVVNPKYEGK
UniProt P12821, residues 30-1306: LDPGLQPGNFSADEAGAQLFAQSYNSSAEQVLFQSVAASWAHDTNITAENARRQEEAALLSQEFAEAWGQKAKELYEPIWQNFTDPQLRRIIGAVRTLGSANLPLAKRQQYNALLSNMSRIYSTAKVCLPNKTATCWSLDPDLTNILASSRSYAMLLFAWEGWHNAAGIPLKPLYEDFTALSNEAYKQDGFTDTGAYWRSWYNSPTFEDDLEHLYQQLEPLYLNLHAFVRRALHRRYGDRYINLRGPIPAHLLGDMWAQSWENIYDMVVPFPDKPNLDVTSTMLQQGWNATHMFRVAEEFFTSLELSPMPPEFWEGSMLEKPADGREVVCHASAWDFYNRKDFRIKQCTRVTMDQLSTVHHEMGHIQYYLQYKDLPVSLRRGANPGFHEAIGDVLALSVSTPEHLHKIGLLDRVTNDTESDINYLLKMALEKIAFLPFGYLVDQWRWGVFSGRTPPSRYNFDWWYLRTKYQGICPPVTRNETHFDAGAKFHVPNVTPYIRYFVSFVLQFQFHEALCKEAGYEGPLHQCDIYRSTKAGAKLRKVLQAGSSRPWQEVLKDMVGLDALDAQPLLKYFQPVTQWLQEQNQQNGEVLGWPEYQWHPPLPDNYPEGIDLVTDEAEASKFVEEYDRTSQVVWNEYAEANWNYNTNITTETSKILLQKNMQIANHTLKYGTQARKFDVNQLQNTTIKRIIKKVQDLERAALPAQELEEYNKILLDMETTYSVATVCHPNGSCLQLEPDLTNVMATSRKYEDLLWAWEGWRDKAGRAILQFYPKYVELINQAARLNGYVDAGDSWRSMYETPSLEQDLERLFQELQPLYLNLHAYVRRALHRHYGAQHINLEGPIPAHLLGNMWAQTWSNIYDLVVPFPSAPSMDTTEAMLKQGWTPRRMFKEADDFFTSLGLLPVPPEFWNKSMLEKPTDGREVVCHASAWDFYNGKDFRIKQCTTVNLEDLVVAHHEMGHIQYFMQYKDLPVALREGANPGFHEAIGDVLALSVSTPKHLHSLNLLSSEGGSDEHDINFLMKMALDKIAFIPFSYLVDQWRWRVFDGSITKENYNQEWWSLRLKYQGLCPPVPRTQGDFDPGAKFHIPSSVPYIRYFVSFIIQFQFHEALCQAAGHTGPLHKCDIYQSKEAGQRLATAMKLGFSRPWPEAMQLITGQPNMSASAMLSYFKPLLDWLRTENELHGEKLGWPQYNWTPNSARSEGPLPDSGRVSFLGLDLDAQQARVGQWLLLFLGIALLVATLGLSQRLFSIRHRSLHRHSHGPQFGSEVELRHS
UniProt P09055, residues 21-798: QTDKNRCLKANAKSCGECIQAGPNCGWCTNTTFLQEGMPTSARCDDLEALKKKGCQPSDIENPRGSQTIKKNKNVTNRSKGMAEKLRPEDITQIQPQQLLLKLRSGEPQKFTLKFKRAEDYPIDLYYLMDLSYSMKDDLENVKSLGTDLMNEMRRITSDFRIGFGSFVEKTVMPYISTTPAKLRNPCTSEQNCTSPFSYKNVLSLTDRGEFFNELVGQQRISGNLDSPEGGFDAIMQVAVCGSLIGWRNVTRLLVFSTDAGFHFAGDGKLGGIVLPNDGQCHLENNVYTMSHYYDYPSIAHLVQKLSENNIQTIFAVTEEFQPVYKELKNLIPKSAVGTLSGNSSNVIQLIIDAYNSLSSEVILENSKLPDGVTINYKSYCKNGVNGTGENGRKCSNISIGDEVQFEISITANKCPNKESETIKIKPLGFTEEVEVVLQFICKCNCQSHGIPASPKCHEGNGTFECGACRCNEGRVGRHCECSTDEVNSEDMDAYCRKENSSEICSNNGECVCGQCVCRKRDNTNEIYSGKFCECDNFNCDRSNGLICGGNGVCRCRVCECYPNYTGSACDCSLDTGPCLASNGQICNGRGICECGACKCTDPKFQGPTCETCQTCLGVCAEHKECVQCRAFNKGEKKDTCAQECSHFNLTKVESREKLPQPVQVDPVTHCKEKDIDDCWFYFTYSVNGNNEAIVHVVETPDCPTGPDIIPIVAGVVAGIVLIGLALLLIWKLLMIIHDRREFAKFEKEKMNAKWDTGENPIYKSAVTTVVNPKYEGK
UniProt P05556: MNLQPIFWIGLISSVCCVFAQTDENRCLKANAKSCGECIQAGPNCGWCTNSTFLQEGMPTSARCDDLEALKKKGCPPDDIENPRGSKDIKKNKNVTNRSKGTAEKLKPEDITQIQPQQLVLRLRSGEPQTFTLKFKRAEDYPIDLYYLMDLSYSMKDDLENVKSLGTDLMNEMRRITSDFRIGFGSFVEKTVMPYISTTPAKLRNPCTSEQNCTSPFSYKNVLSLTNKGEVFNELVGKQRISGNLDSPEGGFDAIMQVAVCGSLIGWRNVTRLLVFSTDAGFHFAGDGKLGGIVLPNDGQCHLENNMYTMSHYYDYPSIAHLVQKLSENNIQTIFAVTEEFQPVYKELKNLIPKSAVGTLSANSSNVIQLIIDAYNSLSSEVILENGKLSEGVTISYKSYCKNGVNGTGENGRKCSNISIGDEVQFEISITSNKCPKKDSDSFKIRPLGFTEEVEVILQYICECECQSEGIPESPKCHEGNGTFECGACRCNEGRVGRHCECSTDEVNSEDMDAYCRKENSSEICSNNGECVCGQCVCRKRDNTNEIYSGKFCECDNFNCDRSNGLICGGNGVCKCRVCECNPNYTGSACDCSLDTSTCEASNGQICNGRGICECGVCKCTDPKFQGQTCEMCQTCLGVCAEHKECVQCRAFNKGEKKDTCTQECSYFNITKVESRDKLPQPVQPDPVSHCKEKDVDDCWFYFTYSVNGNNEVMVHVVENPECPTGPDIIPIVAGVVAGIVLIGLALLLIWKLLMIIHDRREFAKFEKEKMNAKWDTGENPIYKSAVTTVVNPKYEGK
UniProt P08592, residues 18-770: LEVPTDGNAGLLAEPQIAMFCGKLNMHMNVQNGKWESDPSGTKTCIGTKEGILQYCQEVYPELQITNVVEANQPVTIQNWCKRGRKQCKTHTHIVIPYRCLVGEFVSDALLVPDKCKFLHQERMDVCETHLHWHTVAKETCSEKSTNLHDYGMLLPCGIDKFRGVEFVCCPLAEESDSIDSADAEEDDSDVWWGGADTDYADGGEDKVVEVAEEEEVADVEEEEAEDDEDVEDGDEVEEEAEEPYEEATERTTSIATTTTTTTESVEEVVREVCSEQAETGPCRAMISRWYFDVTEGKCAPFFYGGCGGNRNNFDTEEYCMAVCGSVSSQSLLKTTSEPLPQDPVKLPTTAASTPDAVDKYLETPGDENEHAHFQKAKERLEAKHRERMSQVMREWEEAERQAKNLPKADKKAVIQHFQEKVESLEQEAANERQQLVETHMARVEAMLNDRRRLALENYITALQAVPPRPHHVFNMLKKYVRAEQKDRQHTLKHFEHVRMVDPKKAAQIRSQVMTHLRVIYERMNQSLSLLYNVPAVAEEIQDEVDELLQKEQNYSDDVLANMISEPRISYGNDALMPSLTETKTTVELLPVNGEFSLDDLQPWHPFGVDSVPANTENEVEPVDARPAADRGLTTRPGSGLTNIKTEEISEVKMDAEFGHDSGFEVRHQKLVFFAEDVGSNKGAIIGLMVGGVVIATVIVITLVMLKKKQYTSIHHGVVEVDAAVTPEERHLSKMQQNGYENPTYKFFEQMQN
UniProt Q06481, residues 32-763: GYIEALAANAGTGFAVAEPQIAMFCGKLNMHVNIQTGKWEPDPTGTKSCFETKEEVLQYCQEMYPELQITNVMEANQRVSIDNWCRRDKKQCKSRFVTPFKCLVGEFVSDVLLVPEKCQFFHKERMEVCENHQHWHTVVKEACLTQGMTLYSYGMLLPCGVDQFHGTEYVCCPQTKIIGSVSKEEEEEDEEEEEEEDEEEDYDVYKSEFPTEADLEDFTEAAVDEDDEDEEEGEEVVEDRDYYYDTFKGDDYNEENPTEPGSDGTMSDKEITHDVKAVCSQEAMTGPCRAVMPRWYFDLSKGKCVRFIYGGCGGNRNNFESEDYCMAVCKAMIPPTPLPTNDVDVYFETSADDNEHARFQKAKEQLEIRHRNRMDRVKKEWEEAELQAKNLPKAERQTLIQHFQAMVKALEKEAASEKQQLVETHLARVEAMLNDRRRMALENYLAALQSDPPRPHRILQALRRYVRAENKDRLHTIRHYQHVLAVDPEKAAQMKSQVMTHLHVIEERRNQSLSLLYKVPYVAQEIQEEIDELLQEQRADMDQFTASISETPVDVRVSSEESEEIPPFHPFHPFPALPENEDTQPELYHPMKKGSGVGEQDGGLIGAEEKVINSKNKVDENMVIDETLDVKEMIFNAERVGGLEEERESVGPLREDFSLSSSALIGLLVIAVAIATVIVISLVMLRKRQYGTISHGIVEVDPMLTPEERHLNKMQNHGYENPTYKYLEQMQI

Legend:
[1] = target: murine APP with a carboxy-terminal FLAG tag (mouse) (UniProt P12023); test: co-IP; competition: CHO cells co-transfected with APP-FLAG and human Itgβ1; after 48 h control CM or APPs-α CM applied for 8-12 h; lysed, M2-agarose immunoprecipitation, Licor quantification
[2] = target: endogenous rat Integrin β1 (rat (endogenous in E18 primary neurons and cortex)) (UniProt P49134); test: co-IP; endogenous proteins; lysates of E18 rat primary neurons and rat cortex immunoprecipitated with anti-Itgβ1 (MAB 1997), western blotted for APP
[3] = target: FLAG-tagged angiotensin converting enzyme (UniProt P12821); test: co-IP; CHO cells transiently co-transfected, lysed after 48 h in 1% NP-40 STEN buffer (150 mM NaCl, 50 mM Tris, 2 mM EDTA); immunoprecipitated with M2 anti-FLAG agarose; western blot
[4] = target: FLAG-tagged murine Integrin β1 (mouse) (UniProt P09055); test: as above
[5] = target: endogenous mouse APP (mouse (endogenous in brain)) (UniProt P12023); test: co-IP; endogenous proteins; total mouse brain lysate immunoprecipitated with anti-APP (C9) for 30 minutes or overnight, western blotted for Itgβ1; anti-Tbr1 as control

Substance: human Integrin β1 (from UniProt P05556 21-798) (receptor)
binding [1]: binds

Substance: endogenous mouse Integrin β1 (from UniProt P09055 21-798) (receptor)
binding [5]: binds

The remaining lines, values ahead:

binding [2]: binds
Substance: endogenous rat APP (from UniProt P08592 18-770)

binding [3]: no binding
Substance: human APP, 695 amino acid splice variant (from UniProt P05067-4 18-695)

binding [4]: binds
Substance: APLP2 (from UniProt Q06481 32-763)
